Here are results for 95 molecules from PubChem BioAssay AID1159614 (National Center for Advancing Translational Sciences (NCATS), 2016).

The whole screen tested about 45,000 compounds, of which about 65 (0.1%) were called active. The call rests on the fitted dose curve; in most records, active means well fitted activation curve with a large enough effect; inconclusive means small, poorly fitted or top-dose-only effect; inactive means no such curve, though single readings can be large or run the other way. Some of the results follow.

Chain of UniProt P54803 (P54803 whole entry, looked up): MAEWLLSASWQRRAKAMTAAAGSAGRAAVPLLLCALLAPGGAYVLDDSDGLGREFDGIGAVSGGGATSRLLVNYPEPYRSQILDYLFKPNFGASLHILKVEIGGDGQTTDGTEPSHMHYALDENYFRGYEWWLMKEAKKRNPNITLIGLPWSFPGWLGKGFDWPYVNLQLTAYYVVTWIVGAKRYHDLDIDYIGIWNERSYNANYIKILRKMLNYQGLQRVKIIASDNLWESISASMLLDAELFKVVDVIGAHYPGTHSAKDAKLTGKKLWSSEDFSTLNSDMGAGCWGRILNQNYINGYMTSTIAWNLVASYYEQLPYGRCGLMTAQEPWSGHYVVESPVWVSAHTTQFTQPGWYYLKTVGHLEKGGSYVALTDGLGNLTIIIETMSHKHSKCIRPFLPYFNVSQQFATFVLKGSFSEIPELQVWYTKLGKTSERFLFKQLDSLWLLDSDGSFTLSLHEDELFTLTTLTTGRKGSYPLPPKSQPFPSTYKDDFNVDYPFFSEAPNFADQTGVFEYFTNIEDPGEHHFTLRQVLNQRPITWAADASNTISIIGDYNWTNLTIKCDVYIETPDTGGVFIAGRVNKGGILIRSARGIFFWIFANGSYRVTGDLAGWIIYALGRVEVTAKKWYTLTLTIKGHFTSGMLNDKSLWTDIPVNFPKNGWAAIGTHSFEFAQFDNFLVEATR

The experiment addresses Galactocerebrosidase (Homo sapiens) (UniProt P54803). Kind of experiment: A Novel Cell-Based Assay to Identify Small Molecules for B -Galactocerebrosidase. Further: 0% is about no effect; nearly all actives have a fitted effect of over 65% in size. Particulars: 145M-Twi-hGALC-G270D cells, HMU-beta-Gal fluorescence, 48 h; series mostly up to 57.5 µM; activation: at the top concentration. The essentials:
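qHTS, 1536-well; 145M-Twi-hGALC-G270D cells (WT line also made) in DMEM/F12 + 10% FBS; compound incubation on live cells; HMU-β-gal 0.1 mM final, pH 5.2, NaTC; carbonate stop; fluorescence increase = enhanced residual activity.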
With `COc1ccc2cc1Oc1ccc(cc1)C[C@H]1c3c(cc4c(c3Oc3cc5c(cc3OC)CCN(C)[C@@H]5C2)OCO4)CCN1C`, the “activation” value was inactive: -14.2%. Turning to `CC(C)c1ccc(NC(=O)C2CCCN(S(=O)(=O)c3ccc4[nH]c(=O)oc4c3)C2)cc1` (stereo not given), the “activation” value was inactive: -9.03%. As to `CCCN(CCC)CCCNC(=O)Cn1ncn2c(cc3sc(CC)cc32)c1=O`, the “activation” value was inactive: -11%. With `Cc1ccc(CNC(=O)CN2N=C(c3ccc(C)cc3)CCC2=O)cc1` the figure was inactive: -17.7%. Take `CCc1ccccc1NC(=O)c1nc2nc(C)cc(C(F)F)n2n1`: the “activation” value was inactive: -9.41%.

Turning to `CCN(CC)S(=O)(=O)c1ccc2c(c1)c(=O)c(C(=O)N1CCN(c3ccc(OC)cc3)CC1)cn2C`, the “activation” value was inactive: -7.72%. For `COc1cccc(CN2C(=O)c3ccccc3C2C(=O)NCCc2ccccc2)c1` (stereo not given), the “activation” value was inactive: -10.8%. With `CCC(C)NC(=O)c1ccc(Cn2c(=O)c3cccn3c3cccnc32)cc1` (stereo not given) the figure was inactive: 0.0742%. For `COc1ccc(Nc2nnc(-c3cc4cc(Cl)ccc4oc3=O)s2)cc1` the value was inactive: -7.11%; for `COc1cc(SC)ccc1C(=O)N1CCn2c3c(c4cc(C)ccc42)CCCC31` (stereo not given), inactive: -13.6%; for `CCCS(=O)(=O)c1c(S(=O)(=O)CCC)c2cc(C(C)(C)C)ccn2c1C(=O)c1ccc(C)cc1`, inactive: -6.43%. For `O=C(CCCCCn1c(=O)[nH]c2ccsc2c1=O)NCc1ccccc1`, the “activation” value was inactive: -13.6%. As for `Oc1c(C(c2cccc(Br)c2)N2CCCC2)sc2nc(-c3ccco3)nn12` (stereo not given), the “activation” value was inactive: 10.4%. Consider `CCOc1ccc(CNC(=O)Cn2nc(N3CCN(c4ccccc4)CC3)ccc2=O)cc1`, for which the “activation” value is inactive: -34.1%.

In the case of `COc1ccccc1CNC(=O)CSc1nc2nc(C)c(Cc3ccccc3C)c(C)n2n1`, the “activation” value is inactive: -21.4%. Regarding `O=C(NCc1ccc(Cl)cc1)C1CCN(C(=O)c2cnn(-c3ccccc3)c2-n2cccc2)CC1`, the “activation” value is inactive: -11.4%. Regarding `Cc1ccc(C(=O)Nc2c(C)nc3ccccn3c2=O)cc1`, the “activation” value is inactive: -5.54%. With `O=C(NCc1cccs1)c1ccc(CSc2nc3cccnc3n2Cc2ccc(F)cc2)cc1`, the “activation” value was inactive: -8.54%. Turning to `Cc1ccc2c(c1)cc1c(=O)n(CC(=O)NC(C)CCc3ccccc3)nc(C)n12` (stereo not given), the “activation” value is inactive: -10.6%. Turning to `CCOc1nc(NC(=O)NS(=O)(=O)Oc2cccc(Cl)c2)nc(-c2ccccc2)n1`, the “activation” value was inactive: -5.56%. For `Cc1cc(C)cc(NC(=O)C2CCN(C(=O)c3cnn(-c4ccccc4)c3-n3cccc3)CC2)c1` the value was inactive: -15.1%; for `CC1CCn2c(nc3cc(C(=O)NCc4ccc(F)cc4)ccc32)C1` (stereo not given), inactive: -17.9%.

In the case of `Cn1c2c(c(=O)n(C)c1=O)C(c1ccccc1[N+](=O)[O-])CC(=O)N2` (stereo not given), the “activation” value is inactive: -6.69%. With `CCc1ccccc1NC(=O)CSc1nc2n[nH]c(C)c2c(=N)n1-c1cccc(C)c1` the figure was inactive: -12%.

Regarding `COc1ccccc1CNc1ccc(-c2nc(-c3ccccc3C)no2)cc1[N+](=O)[O-]`, the “activation” value was inactive: -42.6%. `COc1ccc(-c2nn(-c3ccc(F)cc3)c3c2cnc2cc4c(cc23)OCO4)cc1`: the “activation” value is inactive: 1.85%. On to `CCOC(=O)c1nn2c(C(F)(F)F)cc(-c3ccc(C)cc3)nc2c1Cl`, for which the “activation” value was inactive: -0.7%. With `CCCCC(=O)Nc1nnc(SCc2cc(=O)n3cc(C)ccc3n2)s1` the figure was inactive: -5.02%.

Regarding `O=C(Nc1ccc(F)c(F)c1)c1cc(S(=O)(=O)NCc2ccc3c(c2)OCO3)ccc1F`, the “activation” value was inactive: -8.26%.

For the molecule `COc1ccc(C2=NC3(CCCCCC3)N(CC(=O)Nc3cccc(Cl)c3)C2=O)cc1`, the “activation” value is inactive: -7.53%. `CC(C)(C)NCC(O)c1ccc(O)c(CO)c1` (stereo not given): the “activation” value was inactive: -12.7%. `COc1cccc(CNC(=O)CN2CCCN(Cc3ccccc3)S2(=O)=O)c1`: the “activation” value was inactive: -7.23%.

As to `Cc1ccn2c(Nc3ccc4c(c3)OCO4)c(-c3ccc(Cl)cc3)nc2c1`, the “activation” value is inactive: -8.97%.

In the case of `COc1ccc(-c2c(C#N)c(SCC(=O)Nc3ccc(C)cc3)nc(C)c2C(=O)Nc2ccccc2)cc1`, the “activation” value was inactive: -4.38%. Regarding `Cc1ccc(CNC(=O)CSc2nc(=O)n(Cc3ccco3)c3c2CCC3)cc1`, the “activation” value was inactive: -8.72%. On to `CCOc1ccc(-c2nnc(SCC(=O)NC(C)CC)nc2-c2ccc(OCC)c(OC)c2)cc1OC` (stereo not given), for which the “activation” value is inactive: -1.99%. For the molecule `COc1cccc(NC(=O)Cn2c(=O)ccc3cc(S(=O)(=O)N4CCC(C)CC4)ccc32)c1`, the “activation” value is inactive: -22.3%.

For the molecule `CCSc1nc2c([nH]c3ccccc32)c(=O)n1-c1cccc(OC)c1`, the “activation” value is inactive: -31.8%.

For `COc1ccc(Cl)cc1S(=O)(=O)N1CCN(CC(=O)Nc2ccccc2C(F)(F)F)CC1`, the “activation” value was inactive: -9.05%. As for `CCOc1ccc(-n2nc3ccc(NC(=O)c4cccc(F)c4)cc3n2)cc1`, the “activation” value is inactive: -4.41%.

For `CC1CCN(C(=O)Cn2cc(SCC(=O)Nc3ccccc3C(F)(F)F)c3ccccc32)CC1`, the “activation” value was inactive: 15.7%. For `COc1ccc(-c2nc(CCNC(=O)c3c(F)cccc3Cl)cs2)cc1` the value was inactive: -23.2%; for `CCCCc1nn2c(=O)cc(COC(=O)c3ccco3)nc2s1`, inactive: -5.06%. Regarding `CCCCNc1ccc(-c2nc(-c3ccncc3)no2)cc1[N+](=O)[O-]`, the “activation” value was inactive: -15.4%. `COc1ccc(Cn2cc(C(=O)c3ccc(F)cc3)c(=O)c3cc4c(cc32)OCCO4)cc1`: the “activation” value is inactive: -11.9%. As to `Cc1nn(C)c(C)c1CCNC(=O)Nc1cccc(Cl)c1C`, the “activation” value was inactive: -4.28%.

Turning to `COc1cc(C(=O)Nc2cccc(OCc3cc(=O)n4cc(C)sc4n3)c2)cc(OC)c1OC`, the “activation” value was inactive: -9.59%. For `CC(=O)Nc1nonc1-c1nnc(SCC(=O)Nc2cccc(C)c2C)n1-c1ccccc1` the value was inactive: -11.2%. Consider `COc1ccc(-c2nc3ccccc3o2)cc1NC(=O)c1ccc(-c2ccc(Br)cc2)o1`, for which the “activation” value is inactive: -7.7%.

As for `Cc1ccc(CN2C(=O)C(=O)c3cc(Br)cc(C)c32)cc1`, the “activation” value is inactive: -10.1%. For the molecule `CSc1ccc(CCNC(=O)Cn2ncn3c(cc4ccccc43)c2=O)cc1`, the “activation” value was inactive: -14%.

For `CCN1C(=O)N(c2ccc(C(C)=O)cc2)S(=O)(=O)c2ccccc21`, the “activation” value was inactive: -6.72%. Take `CCOc1ccc(-n2c(=O)c3c(C)c(C)sc3n(CC(=O)Nc3ccc(CC)cc3)c2=O)cc1`: the “activation” value was inactive: 6.76%. Consider `Cc1ccccc1Nc1c(-c2cccnc2)nc2cccc(C)n12`, for which the “activation” value was inactive: -24.1%. In the case of `CCC(C(=O)Nc1ccccc1)n1nc(-c2cc(C)ccc2C)ccc1=O` (stereo not given), the “activation” value was inactive: -6.08%. As to `Cc1cccc(NC(=O)C2CCCN(S(=O)(=O)c3c(C)n[nH]c3C)C2)c1` (stereo not given), the “activation” value was inactive: -2.3%. For `COc1ccc(Br)cc1CNC(=O)c1cnc2sc(N3CCCCCC3)nn2c1=O` the value was inactive: -11.1%; for `Cn1nc(-c2ccc(OCC(=O)Nc3ccc(Cl)cc3)cc2)c2ccccc2c1=O`, inactive: -17.8%; for `CCN(C(=O)c1cc2c(=O)n(CC)c3ccccc3c2s1)c1cccc(C(F)(F)F)c1`, inactive: -41.6%. For `COc1ccccc1Nc1c2c(nc3ccc(NC(=O)/C=C/c4cc(OC)c(OC)c(OC)c4)cc13)CCCC2`, the “activation” value is inactive: -50.2%. For the molecule `CCCCCc1ccc(-c2ccc(C(=O)Oc3ccc(C(=O)OC)cc3)cc2)nc1`, the “activation” value was inactive: -11.8%. On to `Cc1ccc(S(=O)(=O)C2(C(=O)Nc3ccc(C(C)C)cc3)CC2)cc1`, for which the “activation” value is inactive: -15.5%.

For `COc1ccccc1CNC(=O)c1ccc(CSc2nc3ccncc3n2Cc2ccccc2C)cc1`, the “activation” value is inactive: -13.5%. For the molecule `COc1ccc(CNc2nc(-c3ccc(Cl)cc3)nn2C(=O)c2ccccc2)cc1`, the “activation” value was inactive: -6.25%.

For the molecule `CC(C)c1ccc(NC(=O)C2Cc3ccccc3N2C(=O)c2ccccc2)cc1` (stereo not given), the “activation” value is inactive: -21%. As to `Cc1nc(-c2ccc(S(=O)(=O)N(C)Cc3ccccc3)cc2)co1`, the “activation” value was inactive: -23.2%. As for `Cc1cc(C)cc(N2C(=O)CS(=O)(=O)C23C(=O)N(C)c2ccccc23)c1` (stereo not given), the “activation” value is inactive: -22.5%.

On to `Cc1ccc(-n2ncc(C(=O)N3CCN(c4ncccn4)CC3)c2C2CCN(C(=O)OC(C)(C)C)CC2)cc1`, for which the “activation” value is inactive: -3.69%. Consider `CCOc1ccc(-n2cc(-c3ccccc3)c3c(NCc4ccc(F)cc4)ncnc32)cc1`, for which the “activation” value was inactive: 0.529%. On to `CCCN(CCC)S(=O)(=O)c1ccc(N2CCCCS2(=O)=O)cc1`, for which the “activation” value was inactive: -7.49%. In the case of `Cc1ccc(NC(=O)C2CCN(c3nc4ccccc4nc3C(F)(F)F)CC2)cc1C`, the “activation” value was inactive: -11.8%. Take `CCN(CC)C(=O)CSc1cn(CC(=O)N2CCCCCC2)c2ccccc12`: the “activation” value was inactive: -7.16%.

With `CCOC(=O)Cn1nc(C)c(NC(=O)COc2ccc(C)c(C)c2)c1C`, the “activation” value is inactive: -14%.

For the molecule `CCn1c2ccccc2c2nnc(N3CCN(c4ccc(OC)cc4)CC3)nc21`, the “activation” value is inactive: -7.1%.

Take `COc1ccc(-c2cc(C(F)(F)F)nc(SCCC(=O)Nc3ccc(O)cc3)n2)cc1`: the “activation” value is inactive: 5.29%. Consider `Cc1ccc(C)c(S(=O)(=O)Nc2ccc3c(c2)CCCN3C(=O)c2cccs2)c1`, for which the “activation” value is inactive: -3.74%.

On to `Cc1nnc(N2CCC(C(=O)N3CCCCC3)CC2)c2nn(-c3ccccc3)c(C)c12`, for which the “activation” value is inactive: 3.55%. For `COc1ccc(CNS(=O)(=O)c2ccc3c(c2)NC(=O)C(C)C(=O)N3)cc1` (stereo not given), the “activation” value was inactive: 14%. Regarding `COc1ccc(C)cc1NS(=O)(=O)c1ccc(-c2cnc(C3CC3)o2)cc1`, the “activation” value was inactive: -3.3%. Turning to `Cc1ccc(C)c(Nc2ncnc3c2cnn3-c2ccc(F)cc2)c1`, the “activation” value was inactive: -12.4%.

Consider `Fc1ccc([C@@H]2Nc3ccccc3[C@@H]3C=CC[C@@H]32)cc1`, for which the “activation” value was inactive: -1.12%. In the case of `COc1ccc(/C=C/c2nc(C#N)c(N3CCCCCC3)o2)cc1OC`, the “activation” value was inactive: 2.39%. Turning to `O=C(Cn1cc(S(=O)(=O)c2ccc(Cl)cc2)c(=O)c2ccccc21)Nc1ccc2c(c1)OCO2`, the “activation” value was inactive: -2.28%. For `Cc1ccc(C)c(NC(=O)CSc2ncc3c(n2)-c2ccccc2N(Cc2ccccc2C)S3(=O)=O)c1` the value was inactive: -5.18%; for `CCCc1c(C(=O)OCC)nnc2c(-c3ccccc3)c(C)nn12`, inactive: -12.5%. `CCCN(C(=O)c1cc2c(=O)n(CC)c3ccccc3c2s1)c1ccccc1F`: the “activation” value is inactive: -3.58%. In the case of `COc1ccc(CCN2C(=O)N(c3ccc(F)cc3)C(=O)C2CC(=O)Nc2ccccc2)cc1OC` (stereo not given), the “activation” value is inactive: -12.4%.

For `CCc1ccc(Nc2ncnc3sc4c(c23)CCCC4)cc1`, the “activation” value was inactive: -27.6%. With `COc1ccc(CNc2n[nH]c(-c3ccco3)n2)cc1OC` the figure was inactive: -26.8%. Take `COc1cc(NC(=O)Cn2c(=O)n(Cc3ccccc3Cl)c(=O)c3cc(OC)c(OC)cc32)cc(OC)c1`: the “activation” value is inactive: -24.1%.

For the molecule `CCc1ccc(NC(=O)c2cc(S(=O)(=O)N3CCCCC3)c[nH]2)cc1`, the “activation” value was inactive: 13.3%. Take `O=C(c1ccc(Nc2nc3ccccc3n3nnnc23)cc1)N1CCN(c2ccc(F)cc2)CC1`: the “activation” value is inactive: -11.1%. For the molecule `COc1ccc(C2c3c(n(C)c4ccccc34)C(=O)N2CC(=O)Nc2ccccc2Cl)cc1` (stereo not given), the “activation” value is inactive: 0.644%. As for `COc1cc(NC(=O)c2cc3nc(-c4ccc(C)cc4)cc(C(F)(F)F)n3n2)cc(OC)c1OC`, the “activation” value was inactive: -19.5%.

On to `CCn1c2c(c(=O)n3ncc(C(=O)Nc4ccc(OC(F)(F)F)cc4)c13)CN(Cc1ccc(OC)cc1)CC2`, for which the “activation” value was inactive: -4.69%.
